According to article PMC9463443 (Cell Discovery, 2022):

Biological target: T1, CENP-OPQUR sub-complex (human, UniProt Q9BU64; Q6IPU0; Q7L2Z9 1-268; Q71F23 1-418; Q13352)
T1 construct: CENP-O, human; CENP-P, human; CENP-Q, human; CENP-U, human; CENP-R, human; source: Sf9, purified (Ni-NTA, Mono S, SEC); copies: + + + +
Test: SEC; assembly of CCAN with wild-type CENP-LN or CENP-L^4EN^2E, judged by elution profile (Supplementary Fig. S6c, d); sub-complexes mixed at 1:1:1
Conditions: both partners purified

- binding result: binds
B1: CENP-L^4EN^2E mutant (complex)
chain 1: MDSYSAPESTPSASSRPEDYFIGATPLQKRLESVRKQSSFILTPPRRKIPQCSQLQEDVDPQKVAFLLHKQWTLYSLTPLYKFSYSNLKEYSRLLNAFIVAEKQKGLAVEVGEDFNIKVIFSTLLGMKGTQRDPEAFLVQIVSKSQLPSENREGEVLWTGWFCCVFGDSLLETVSEDFTCLPLFLANGAESNTAIIGTWFQKTFDCYFSPLAINAFNLSWMAAMWTACKMDHYVATTEFLWSVPCSPQSLDISFAIHPEDAKALWDSVHKTPGEVTQEEVDLFMDCLYSHFHRHFKIHLSATRLVEVSTSVASAHTDGEIEILCHKYLIGVLAYLTELAIFQIE
chain 2: [letters of about 350 residues left out]
notes: CENP-L, human, CENP-L^4E; CENP-N, human, CENP-N^2E; also called CENP-L^2EN^4E (as printed in the methods)
